Our source for the binding signal values is article PMC12820563, “FoxP3 forms a head-to-head dimer in vivo and stabilizes its multimerization on adjacent microsatellites”.

Some of the results follow.

The target of this assay is T1, MBP-FoxP1dN (Mus musculus, UniProt P58462 326-579).
T1 sequence: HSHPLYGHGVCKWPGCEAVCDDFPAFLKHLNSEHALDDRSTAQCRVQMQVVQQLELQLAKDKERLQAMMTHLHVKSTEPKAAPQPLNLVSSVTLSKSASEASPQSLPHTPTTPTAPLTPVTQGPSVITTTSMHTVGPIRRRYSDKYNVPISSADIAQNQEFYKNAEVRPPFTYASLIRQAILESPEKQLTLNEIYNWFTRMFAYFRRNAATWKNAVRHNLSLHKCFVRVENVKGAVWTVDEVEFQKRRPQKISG
Kind of assay: PD-seq (MBP pull-down with sequencing); 20 mM Tris-HCl pH 7.5, 100 mM NaCl, 1.5 mM MgCl2, 0.4 uM protein, 0.1 uM dsDNA library, 30 min, room temperature, amylose pull-down; high values mean tight binding. The settings on record: protein: recombinant; tags: His6-MBP; chain copies: 2; dsDNA, one strand shown. The method, boiled down:
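The N-terminus-lacking fragment of mouse FoxP3 or FoxP1 carried a His6-MBP tag and was expressed in E. coli. At 0.4 µM it was incubated with 0.1 µM Klenow-filled degenerate double-stranded DNA library for 30 min at room temperature in Tris pH 7.5 buffer with NaCl and MgCl2, and complexes were caught on amylose resin, washed three times, released with proteinase K, PCR-barcoded and Illumina-sequenced. Binding is reads-per-million enrichment of pull-down over input with replicates pooled.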
Consider “GATGATTGTTCTCCCAGCTGATGAATTCTGAAACTCGAGTAAACAAATTTTCCTAATCTTTCTGTTCAAGCGCCATCTAC”, for which the binding signal was 0.895 RPM ratio (pull-down/input).

Take “GATGATTGTTCTCCCAGCTGATGAATTCTATCTATCGAGTAAACAAATTTTCCTAATCTTTCTGTTCAAGCGCCATCTAC”: the binding signal was 0.89 RPM ratio (pull-down/input).

“GATGATTGTTCTCCCAGCTGATGAATTGCCAAAATCGAGTAAACAAATTTTCCTAATCTTTCTGTTCAAGCGCCATCTAC”: the binding signal is 1.18 RPM ratio (pull-down/input).

Take “GATGATTGTTCTCCCAGCTGATGAATTAAAGGCATCGAGTAAACAAATTTTCCTAATCTTTCTGTTCAAGCGCCATCTAC”: the binding signal was 1.09 RPM ratio (pull-down/input).

For “GATGATTGTTCTCCCAGCTGATGAATTCGTACCTTCGAGTAAACAAATTTTCCTAATCTTTCTGTTCAAGCGCCATCTAC”, the binding signal is 0.872 RPM ratio (pull-down/input).

For the sequence “GATGATTGTTCTCCCAGCTGATGAATTGTATAGCTCGAGTAAACAAATTTTCCTAATCTTTCTGTTCAAGCGCCATCTAC”, the binding signal is 0.929 RPM ratio (pull-down/input).

As to “GATGATTGTTCTCCCAGCTGATGAATTTCAGCTGTCGAGTAAACAAATTTTCCTAATCTTTCTGTTCAAGCGCCATCTAC”, the binding signal is 0.889 RPM ratio (pull-down/input).

For the sequence “GATGATTGTTCTCCCAGCTGATGAATTGCGGCGCTCGAGTAAACAAATTTTCCTAATCTTTCTGTTCAAGCGCCATCTAC”, the binding signal was 0.969 RPM ratio (pull-down/input).

In the case of “GATGATTGTTCTCCCAGCTGATGAATTCATCCTCTCGAGTAAACAAATTTTCCTAATCTTTCTGTTCAAGCGCCATCTAC”, the binding signal was 0.839 RPM ratio (pull-down/input).

As to “GATGATTGTTCTCCCAGCTGATGAATTATGTCGCTCGAGTAAACAAATTTTCCTAATCTTTCTGTTCAAGCGCCATCTAC”, the binding signal was 1.01 RPM ratio (pull-down/input).

In the case of “GATGATTGTTCTCCCAGCTGATGAATTATGTGAGTCGAGTAAACAAATTTTCCTAATCTTTCTGTTCAAGCGCCATCTAC”, the binding signal is 1.13 RPM ratio (pull-down/input).

Turning to “GATGATTGTTCTCCCAGCTGATGAATTGGTTAGGTCGAGTAAACAAATTTTCCTAATCTTTCTGTTCAAGCGCCATCTAC”, the binding signal is 0.882 RPM ratio (pull-down/input).

As to “GATGATTGTTCTCCCAGCTGATGAATTAAGTGTGTCGAGTAAACAAATTTTCCTAATCTTTCTGTTCAAGCGCCATCTAC”, the binding signal was 1.14 RPM ratio (pull-down/input).

Regarding “GATGATTGTTCTCCCAGCTGATGAATTATTACCTTCGAGTAAACAAATTTTCCTAATCTTTCTGTTCAAGCGCCATCTAC”, the binding signal is 1.17 RPM ratio (pull-down/input).

Consider “GATGATTGTTCTCCCAGCTGATGAATTCTAGCATTCGAGTAAACAAATTTTCCTAATCTTTCTGTTCAAGCGCCATCTAC”, for which the binding signal was 1.14 RPM ratio (pull-down/input).

As to “GATGATTGTTCTCCCAGCTGATGAATTTAATGAATCGAGTAAACAAATTTTCCTAATCTTTCTGTTCAAGCGCCATCTAC”, the binding signal was 0.921 RPM ratio (pull-down/input).

For the sequence “GATGATTGTTCTCCCAGCTGATGAATTATTAAACTCGAGTAAACAAATTTTCCTAATCTTTCTGTTCAAGCGCCATCTAC”, the binding signal is 1.14 RPM ratio (pull-down/input).

Consider “GATGATTGTTCTCCCAGCTGATGAATTACGGACGTCGAGTAAACAAATTTTCCTAATCTTTCTGTTCAAGCGCCATCTAC”, for which the binding signal was 0.901 RPM ratio (pull-down/input).

“GATGATTGTTCTCCCAGCTGATGAATTTAGTTTTTCGAGTAAACAAATTTTCCTAATCTTTCTGTTCAAGCGCCATCTAC”: the binding signal was 1.19 RPM ratio (pull-down/input).

For “GATGATTGTTCTCCCAGCTGATGAATTGCAGAATTCGAGTAAACAAATTTTCCTAATCTTTCTGTTCAAGCGCCATCTAC”, the binding signal was 1.22 RPM ratio (pull-down/input).

In the case of “GATGATTGTTCTCCCAGCTGATGAATTTTAGTGTTCGAGTAAACAAATTTTCCTAATCTTTCTGTTCAAGCGCCATCTAC”, the binding signal was 1.14 RPM ratio (pull-down/input).

With “GATGATTGTTCTCCCAGCTGATGAATTTCAATCCTCGAGTAAACAAATTTTCCTAATCTTTCTGTTCAAGCGCCATCTAC”, the binding signal is 0.844 RPM ratio (pull-down/input).

Consider “GATGATTGTTCTCCCAGCTGATGAATTAGATCCGTCGAGTAAACAAATTTTCCTAATCTTTCTGTTCAAGCGCCATCTAC”, for which the binding signal was 0.844 RPM ratio (pull-down/input).

Turning to “GATGATTGTTCTCCCAGCTGATGAATTAACACCTTCGAGTAAACAAATTTTCCTAATCTTTCTGTTCAAGCGCCATCTAC”, the binding signal was 1.02 RPM ratio (pull-down/input).

With “GATGATTGTTCTCCCAGCTGATGAATTGCTCATTTCGAGTAAACAAATTTTCCTAATCTTTCTGTTCAAGCGCCATCTAC”, the binding signal is 1.09 RPM ratio (pull-down/input).

Consider “GATGATTGTTCTCCCAGCTGATGAATTTGAGACTTCGAGTAAACAAATTTTCCTAATCTTTCTGTTCAAGCGCCATCTAC”, for which the binding signal is 0.842 RPM ratio (pull-down/input).

In the case of “GATGATTGTTCTCCCAGCTGATGAATTAGTCCGTTCGAGTAAACAAATTTTCCTAATCTTTCTGTTCAAGCGCCATCTAC”, the binding signal is 0.931 RPM ratio (pull-down/input).

In the case of “GATGATTGTTCTCCCAGCTGATGAATTTCCCTCTTCGAGTAAACAAATTTTCCTAATCTTTCTGTTCAAGCGCCATCTAC”, the binding signal is 0.822 RPM ratio (pull-down/input).

Consider “GATGATTGTTCTCCCAGCTGATGAATTTCCCAGATCGAGTAAACAAATTTTCCTAATCTTTCTGTTCAAGCGCCATCTAC”, for which the binding signal is 0.784 RPM ratio (pull-down/input).

Regarding “GATGATTGTTCTCCCAGCTGATGAATTTTATAGATCGAGTAAACAAATTTTCCTAATCTTTCTGTTCAAGCGCCATCTAC”, the binding signal is 0.918 RPM ratio (pull-down/input).

In the case of “GATGATTGTTCTCCCAGCTGATGAATTCTGCGGGTCGAGTAAACAAATTTTCCTAATCTTTCTGTTCAAGCGCCATCTAC”, the binding signal is 0.764 RPM ratio (pull-down/input).

Regarding “GATGATTGTTCTCCCAGCTGATGAATTGGTGATCTCGAGTAAACAAATTTTCCTAATCTTTCTGTTCAAGCGCCATCTAC”, the binding signal was 0.939 RPM ratio (pull-down/input).

Turning to “GATGATTGTTCTCCCAGCTGATGAATTGATAAACTCGAGTAAACAAATTTTCCTAATCTTTCTGTTCAAGCGCCATCTAC”, the binding signal was 1.28 RPM ratio (pull-down/input).

Turning to “GATGATTGTTCTCCCAGCTGATGAATTGGGAGTGTCGAGTAAACAAATTTTCCTAATCTTTCTGTTCAAGCGCCATCTAC”, the binding signal was 0.908 RPM ratio (pull-down/input).

Regarding “GATGATTGTTCTCCCAGCTGATGAATTATTTATCTCGAGTAAACAAATTTTCCTAATCTTTCTGTTCAAGCGCCATCTAC”, the binding signal is 1.76 RPM ratio (pull-down/input).

With “GATGATTGTTCTCCCAGCTGATGAATTTCGTCATTCGAGTAAACAAATTTTCCTAATCTTTCTGTTCAAGCGCCATCTAC”, the binding signal is 0.942 RPM ratio (pull-down/input).

Consider “GATGATTGTTCTCCCAGCTGATGAATTCAGCAAATCGAGTAAACAAATTTTCCTAATCTTTCTGTTCAAGCGCCATCTAC”, for which the binding signal is 1.11 RPM ratio (pull-down/input).

“GATGATTGTTCTCCCAGCTGATGAATTCGGCCTATCGAGTAAACAAATTTTCCTAATCTTTCTGTTCAAGCGCCATCTAC”: the binding signal is 0.817 RPM ratio (pull-down/input).

Turning to “GATGATTGTTCTCCCAGCTGATGAATTGCTGGGTTCGAGTAAACAAATTTTCCTAATCTTTCTGTTCAAGCGCCATCTAC”, the binding signal was 0.912 RPM ratio (pull-down/input).

As to “GATGATTGTTCTCCCAGCTGATGAATTGCTCCTATCGAGTAAACAAATTTTCCTAATCTTTCTGTTCAAGCGCCATCTAC”, the binding signal was 1.03 RPM ratio (pull-down/input).
